Measurements reported in PMC4336329 (PLoS ONE, 2015).
The campaign covered roughly 310,000 compounds. About 14,000 (4.5%) showed an effect of 50% or more. The effect is printed as a negative number. This is one part of the list.

Target: human ether-à-go-go-related gene (hERG) potassium channel (human, UniProt Q12809)
Assay: primary screen, population patch clamp on CHO cells stably expressing hERG
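Also: peak tail current of the secondary pulse compared with the same well before compound.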

human ether-à-go-go-related gene (hERG) potassium channel, sequence (Q12809 whole entry, looked up): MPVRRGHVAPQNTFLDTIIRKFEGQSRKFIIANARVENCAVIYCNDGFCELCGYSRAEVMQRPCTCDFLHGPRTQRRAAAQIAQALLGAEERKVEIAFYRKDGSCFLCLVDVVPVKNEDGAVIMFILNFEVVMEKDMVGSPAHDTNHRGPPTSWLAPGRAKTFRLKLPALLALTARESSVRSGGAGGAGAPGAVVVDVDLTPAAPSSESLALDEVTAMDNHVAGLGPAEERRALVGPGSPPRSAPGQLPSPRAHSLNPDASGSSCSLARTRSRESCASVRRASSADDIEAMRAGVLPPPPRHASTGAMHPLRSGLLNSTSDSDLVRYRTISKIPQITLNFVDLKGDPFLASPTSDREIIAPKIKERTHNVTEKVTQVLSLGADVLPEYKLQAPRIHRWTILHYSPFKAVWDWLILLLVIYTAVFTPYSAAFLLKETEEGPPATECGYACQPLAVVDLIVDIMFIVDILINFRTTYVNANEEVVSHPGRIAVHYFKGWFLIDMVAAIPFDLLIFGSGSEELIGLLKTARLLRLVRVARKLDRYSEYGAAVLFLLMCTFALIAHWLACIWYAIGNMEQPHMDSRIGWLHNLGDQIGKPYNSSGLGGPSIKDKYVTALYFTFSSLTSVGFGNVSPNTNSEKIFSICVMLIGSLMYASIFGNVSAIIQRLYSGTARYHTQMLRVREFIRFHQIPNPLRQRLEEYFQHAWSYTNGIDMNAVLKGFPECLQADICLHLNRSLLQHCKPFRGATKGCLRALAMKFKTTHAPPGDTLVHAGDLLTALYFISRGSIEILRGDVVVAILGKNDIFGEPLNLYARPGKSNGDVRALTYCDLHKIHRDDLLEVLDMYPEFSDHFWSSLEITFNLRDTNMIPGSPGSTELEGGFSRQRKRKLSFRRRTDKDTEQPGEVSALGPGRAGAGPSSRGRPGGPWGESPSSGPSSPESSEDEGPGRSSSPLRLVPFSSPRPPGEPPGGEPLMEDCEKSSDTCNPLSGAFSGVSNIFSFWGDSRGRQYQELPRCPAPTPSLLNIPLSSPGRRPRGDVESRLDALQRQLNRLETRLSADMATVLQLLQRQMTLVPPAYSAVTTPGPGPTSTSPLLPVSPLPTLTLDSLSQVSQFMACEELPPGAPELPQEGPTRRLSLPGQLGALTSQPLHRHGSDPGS

SMILES | hERG current change (%, negative = inhibition) at 10uM
COC(=O)C1=C(C)N(CCCC(=O)O)C(=O)NC1c1ccc2c(c1)OCO2 (centres unmarked) | 3.66%
Cc1ccccc1C(=O)NC(=S)Nc1ccccc1[N+](=O)[O-] | 18.1%
COCCCn1c(=O)c2sccc2n(Cc2ccc(C)cc2)c1=O | 14.1%
Cc1ccc(S(=O)(=O)N2CCc3cc4c(cc3C2C)OCCCO4)cc1 (centres unmarked) | -0.487%
Cc1cc[n+](-c2[nH]c(=O)sc2/C=N/N=C(\[O-])c2ccncc2)cc1 | 5.61%
CCOc1ccc(-c2nc(N)ncc2Oc2ccc(OC)cc2)c(O)c1 | -2.1%
Cc1ccc(Cn2c(CCC(=O)O)nc3ncccc3c2=O)cc1 | 13.4%
CC(=O)Nc1ccccc1OCC(=O)NC1CCCCC1C (centres unmarked) | 8.59%
O=C(COC(=O)C12CC3CC(CC(C3)C1)C2)Nc1ccccc1F | 20.3%
CCC(CO)NCc1ccc(OCC(O)c2ccccc2)c(OC)c1.Cl (centres unmarked) | 12.4%
CC(NC(=S)Nc1ccccc1)C1COc2ccccc2O1 (centres unmarked) | 1.53%
O=C(CSc1ncccn1)N/N=C/c1ccc2c(c1)OCO2 | -5.21%
CCc1ccc(N(CC(=O)NC2CCCC2)C(=O)CCC(=O)Nc2cc(C)on2)cc1 | -24.8%
Cc1ccc(/C=C2\SC(=S)N(CCC(=O)Nc3ccc(O)cc3)C2=O)cc1 | 1.58%
COc1ccc(OC)c(S(=O)(=O)N2CCCC(C(=O)N3CCOCC3)C2)c1 (centres unmarked) | 20.5%
CCc1sc(C(=O)Nc2ccc(NC(C)=O)cc2)cc1C | 14%
N#Cc1c(-n2ccnc2)cccc1-n1ccnc1 | -15.6%
Cc1ccnc(N2CCC(C(=O)Nc3ccc4c(c3)OCO4)CC2)n1 | 15.3%
CC1(C)CC(=O)C2=C(C1)OC(N)=C(C#N)C2C1CC=CCC1 (centres unmarked) | 3.77%
Cn1c(SCC(=O)NCc2ccco2)nc2ccccc2c1=O | -23.6%
CC(C)c1ccccc1-n1c(SCC(=O)c2ccc3c(c2)NC(=O)CO3)nc2ccccc2c1=O | 11.5%
CCCN(Cc1ccc(N(CC)CC)cc1)CC1CC1 | -9.04%
CC(/C=N/NC(=O)c1nnn(-c2nonc2N)c1C(C)C)=C\c1ccco1 | 8.07%

SMILES | hERG current change (%, negative = inhibition) at 10uM
CC(CNC(=O)c1cc(COc2ccc3ncccc3c2)on1)c1ccccc1 (centres unmarked) | 9.51%
COc1cc(C(=O)N2CCN(C(=O)c3ccco3)CC2)c([N+](=O)[O-])cc1OC | 10.3%
COc1ccccc1NC(=O)N1CCCC1C(=O)Nc1ccc2c(c1)OCO2 (centres unmarked) | 0.956%
O=c1c2ccccc2ncn1Cc1ccco1 | -19.8%
O=C(Nc1cc(C(F)(F)F)ccc1N1CCOCC1)C1=COCCO1 | -14.3%
CN(C)S(=O)(=O)N1CCC(Oc2cccc(C(=O)NC3CCCCCC3)c2)CC1 | -30.8%
O=CN1CCN(CC(O)Cn2c3ccccc3c3ccccc32)CC1 (centres unmarked) | -23.6%
CC(=O)Nc1nnc(CCS(=O)(=O)c2ccc(C)cc2)s1 | 7.13%
O=C(NCCN1CCOCC1)C(=O)NCC1OCCCN1S(=O)(=O)c1cc(F)ccc1F (centres unmarked) | 0.602%
CSc1sccc1/C=C(/C#N)C(=O)c1ccco1 | 2.38%
CCCCNC(=O)CSc1nc(Cc2ccccc2)nc2ccccc12 | -14.7%
COCCCNc1oc(COc2ccc(Cl)cc2Cl)nc1C#N | -15.9%
N#CCCN(C(=O)COC(=O)c1ccc2c(=O)n3c(nc2c1)CCC3)c1ccccc1 | 31.8%
O=C(c1ccco1)c1nc2c(n1O)CCCCC2 | -3.43%
CSc1ccc(C(=O)C2CCCN(C(=O)c3cc(C)n(C)n3)C2)cc1 (centres unmarked) | -7.88%
O=C(CNC(=O)c1ccccc1)OCc1nc2ccccc2s1 | 2.88%
Clc1ccc(C[n+]2cc(-c3ccccc3)n3c2CCC3)cc1Cl.[Cl-] | -45.1%
COc1ccc(N2C(=NC(=O)C3CCCCC3)SC3CS(=O)(=O)CC32)cc1OC (centres unmarked) | -24.9%
N#CC1=C(N)N(c2ccccc2)C(c2ccco2)C1(C#N)C#N (centres unmarked) | -16.1%
CN(Cc1ccco1)C(=O)c1ccc(OC2CCN(Cc3ccccn3)CC2)cc1 | -6.63%
CC(=O)c1ccc(S(=O)(=O)Nc2ccccc2C(=O)NC2CC2)cc1 | -2.83%
CC(C)c1cccc(C(C)C)c1NC(=O)CN1C(=O)NC2(CCCC2)C1=O | 14.8%
O=C(O)CN1CCN(Cc2cccc(Cl)c2)C1=O | 33.6%

SMILES | hERG current change (%, negative = inhibition) at 10uM
COc1ccc([C@@H]2[C@@H]3C(=O)N(C(C)(C)C)C(=O)[C@@H]3[C@]3(Cc4ccccc4)C(=O)N(c4cccc(Br)c4)C(=O)N23)cc1 | 15.3%
O=C(COC(=O)Cc1ccc(Cl)cc1)Nc1c(F)cccc1F | 1.06%
O=c1ccnc(Nc2ccc3c(c2)OCCO3)[nH]1 | 21.5%
c1ccc(Cn2ccnc2SCc2nnc(-c3ccccc3)o2)cc1 | -9.41%
Cc1ccc(C(=O)Nc2cnc3ccccn3c2=O)cc1 | -17.2%
CCOc1ccccc1NC(=O)NCCc1c[nH]c2ccccc12 | -11.3%
COc1ccc(NC(=O)CCCN2C(=O)CN(C)C2=O)cc1Cl | 8.87%
COc1ccc([C@H]2CC(=O)C=C(c3ccc(OC(F)(F)F)cc3)C2)cc1 | 5.59%
Cl.Clc1ccc2nc3c(c(-c4ccccc4)c2c1)CNCC3 | -37.3%
Cc1ccc(S(=O)(=O)N2CCOCC2)cc1NC(=O)COC(=O)c1ccc2c(c1)OCO2 | 4.06%
CC(=O)C1C2c3ccccc3OC1(C)N=c1s/c(=C/c3cnn(C)c3)c(=O)n12 (centres unmarked) | -5.74%
COc1ccc(/C=N/Nc2nc(N)cc(Cl)n2)cc1OC | -5.15%
CCOC(=O)C1CCN(S(=O)(=O)c2ccc3[nH]c(=O)oc3c2)CC1 | -30.9%
CSc1nc(O)c(C2OC(=O)c3ccccc32)c(=O)[nH]1 (centres unmarked) | 22.5%
Cc1ccc(S(=O)(=O)N(C)C)cc1NC(=O)COc1ccc(-c2nnco2)cc1 | 5.6%
COc1ccc(C(=O)C(Sc2nnc(C)c(=O)[nH]2)c2ccc(OC)cc2)cc1 (centres unmarked) | -12.3%
CC(=O)Nc1ccc(O)cc1[N+](=O)[O-] | 13.4%
CCCc1n[nH]c2c1/C(=N/O)CC(c1ccccc1)C2 (centres unmarked) | 2.73%
CN=C1SC(C(=O)O)CC(=O)N1C (centres unmarked) | 19.1%
CCC(C)NC(=O)/C=C/c1cccs1 (centres unmarked) | 0.622%
O=S(=O)(c1ccc(Cl)cc1)N1CCN(CCc2ccncc2)CC1 | -55.3%
O=C1CC(=O)N(Cc2ccccc2)C(=O)N1CCCCCCN1C(=O)CC(=O)N(Cc2ccccc2)C1=O | 4.33%
COc1ccc(N2CCN(C(=O)CSc3nnc4c5cc(C)ccc5n(C)c4n3)CC2)cc1 | -13.9%

SMILES | hERG current change (%, negative = inhibition) at 10uM
Cc1cc(C(=O)NN=C2CCCC2)c2ccccc2n1 | 7.61%
Cc1cc(-c2cccs2)n[nH]1 | 5.82%
CCS(=O)(=O)N1CCN(Cc2ccncc2)CC1.O=C(O)C(=O)O | 13.2%
CCOC(=O)C1(Cc2cccc(F)c2)CCN(Cc2c(C)nn(CC)c2C)CC1 | -41.4%
O=C(Cc1ccsc1)Nc1ccccc1F | 7.41%
COC(=O)c1cccc(NC(=O)CSc2nnc(COc3ccc(C#N)cc3)n2-c2ccccc2)c1 | -73.5%
CC(=O)C1=C(O)C(=O)N(c2cccc(C(=O)O)c2)C1c1ccc(F)cc1 (centres unmarked) | 17.9%
CN(C)/N=C/c1ccc(OS(=O)(=O)c2ccccc2)cc1 | 8.55%
CCOc1ccc(/C=N/NC(=O)c2nnn(-c3nonc3N)c2COc2ccc(F)cc2)cc1 | 13.4%
Cc1ccc(/C=C2\C(=N)N3N=C(CC(=O)N4CCCCC4)SC3=NC2=O)cc1 | 17.4%
N#C/C(=C\c1ccc(-c2cccc(C(F)(F)F)c2)o1)C(=O)Nn1cnnc1 | -6.02%
O=c1[nH]c(CN2CCN(S(=O)(=O)c3cccs3)CC2)nc2c(Br)cc(Br)cc12 | 2.59%
Cc1ccnc(NS(=O)(=O)c2ccc(NC(=O)Cc3c(F)cccc3Cl)cc2)n1 | 11.4%
Cc1nc2ccccc2n1CC(=O)NC(C)C1CC2CCC1C2 (centres unmarked) | 9.76%
CC(C)(C)NC(=O)NC(=O)COC(=O)C1CC(=O)N(Cc2ccccc2)C1 (centres unmarked) | 7.58%
CC(=O)OCC1=C(C(=O)O)N2C(=O)C(NC(=O)C(C)Cn3nc(C)c(Cl)c3C)C2SC1 (centres unmarked) | 8.47%
Cc1cccc(NC(=O)COC(=O)c2cccc3c2C(=O)c2ccccc2C3=O)c1C | -6.2%
CCN(CC(N)=O)S(=O)(=O)c1ccc(Br)cc1 | -5.16%
CN(C)c1cc[nH]c(=O)c1C#N | 10.5%
C=CCn1c(SCC(=O)C(C)(C)C)nnc1-c1ccccn1 | 1.5%
